T1: Activin A (human, UniProt P08476)
T1 chain: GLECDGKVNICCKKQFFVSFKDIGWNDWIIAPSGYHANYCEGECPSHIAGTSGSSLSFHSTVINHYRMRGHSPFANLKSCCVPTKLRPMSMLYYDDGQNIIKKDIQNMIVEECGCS

T2: GDF11 (human, UniProt O95390)
T2 chain: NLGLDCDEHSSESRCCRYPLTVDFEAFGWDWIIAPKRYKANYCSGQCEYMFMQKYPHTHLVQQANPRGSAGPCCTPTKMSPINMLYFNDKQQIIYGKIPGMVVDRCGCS

T3: Activin B (human, UniProt P09529)
T3 chain: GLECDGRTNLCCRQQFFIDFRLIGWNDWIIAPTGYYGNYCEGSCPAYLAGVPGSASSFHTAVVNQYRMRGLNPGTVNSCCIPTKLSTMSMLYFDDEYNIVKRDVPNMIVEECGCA


Experiments:
Experiment in all cases: SPR
Activin A = biological target: T1, Activin A
GDF11 = biological target: T2, GDF11
Activin B = biological target: T3, Activin B

Kd (Activin A) [nM]	Kd (GDF11) [nM]	Kd (Activin B) [nM]	Binder
22.9	0.074	0.621	ActRIIB(L79D 25-131)-hFc (protein) ETRECIYYNANWELERTNQSGLERCEGEQDKRLHCYASWRNSSGTIELVKKGCWDDDFNCYDRQECVATEENPQVYFCCCEGNFCNERFTHLPEAGGPEVTYEPPPTG[human IgG1 Fc and a few adjoining residues not written out]
0.018	0.031	0.012	ActRIIB(25-131)-hFc (protein) ETRECIYYNANWELERTNQSGLERCEGEQDKRLHCYASWRNSSGTIELVKKGCWLDDFNCYDRQECVATEENPQVYFCCCEGNFCNERFTHLPEAGGPEVTYEPPPTG[human IgG1 Fc and a few adjoining residues not written out]

— patent publication US10722558 (dated 2020)
